Experimental data taken from patent publication US8475804B2 (priority 2009, dated 2013).
Structures can show the parent of a compound that is named as a salt. Where two headings read alike, the source gives them in different places.

Key:
Ebola virus [1] = assay: microbe, parasite or virus in culture; format: cell-based, Ebolavirus (EBOV); settings: Zaire ebolavirus; for IC50: HepG2, read-out: IC50 (μM) HepG2
Ebola virus [2] = assay: microbe, parasite or virus in culture; format: cell-based, Ebolavirus (EBOV)
[3] = Zaire ebolavirus, Vero, read-out: IC50 (μM) Vero
[4] = Zaire ebolavirus, Vero, read-out: Max Effect

Row | Structure (SMILES) | IC50 (Ebola virus [1]) [µM] | IC50 (Ebola virus [2]; Zaire ebolavirus, Vero) [µM] | IC50 (Ebola virus [2]; [3]) [µM] | also measured
1 | O=C1CCc2ccc(OCCCCN3CCN(c4cccc(Cl)c4Cl)CC3)cc2N1 [Aripiprazole] | 3.8 | 7.5 | 20 | 
2 | COc1ccc(CCN2CCC(Nc3nc4ccccc4n3Cc3ccc(F)cc3)CC2)cc1 [Astemizole] | 1.4 | 4.3 | 6.2 | 
3 | CN1[C@@H]2CC[C@H]1C[C@@H](OC(c1ccccc1)c1ccccc1)C2 [Benztropine Mesylate] | 2.6 | 3.7 | 8 | 
4 | CN1CCC[C@@H]1CCO[C@](C)(c1ccccc1)c1ccc(Cl)cc1 [Clemastine Fumarate] | 0.65 | 4 | 5.4 | Emax (Ebola virus [1]; HepG2, read-out: Max Effect HepG2): 93.3%; Max Effect (Ebola virus [2]): 0.850; Emax (Ebola virus [2]; Zaire ebolavirus, Vero, read-out: Max Effect Vero): 95.8%
5 | CN1CCC[C@@H]1CCO[C@](C)(c1ccccc1)c1ccc(Cl)cc1 [Clemastine] |  |  |  | IC50 (Ebola virus [2]): 2.9 µM; Max Effect (Ebola virus [2]): 0.525
6 | CCN(CC)CCOc1ccc(/C(=C(\Cl)c2ccccc2)c2ccccc2)cc1 [Clomiphene Citrate] | 0.76 |  | 2.4 | 
7 | CN(C)CCCN1c2ccccc2CCc2ccc(Cl)cc21 [Clomipramine Hydrochloride] | 2.6 | 6.3 | 11.3 | 
8 | Clc1ccc2c(c1)CCc1cccnc1C2=C1CCNCC1 [Desloratadine] |  |  |  | Emax (Ebola virus [2]; [4]): 43%
9 | CCN(CC)CCOC(=O)C1(C2CCCCC2)CCCCC1 [Dicyclomine Hydrochloride] |  | 5.7 |  | Emax (Ebola virus [2]; [4]): 59.6%
10 | OCCN1CCN(CCCN2c3ccccc3Sc3ccc(C(F)(F)F)cc32)CC1 [Fluphenazine Hydrochloride] | 3 | 4.2 | 5.5 | 
11 | CN(C)C(=O)C(CCN1CCC(O)(c2ccc(Cl)cc2)CC1)(c1ccccc1)c1ccccc1 [Loperamide] |  | 5.5 |  | 
12 | CNCCCC12CCC(c3ccccc31)c1ccccc12 [Maprotiline Hydrochloride] | 2.9 | 7.6 | 9.6 | 
13 | Clc1ccc(CO/N=C(\Cn2ccnc2)c2ccc(Cl)cc2Cl)c(Cl)c1 [Oxiconazole Nitrate] |  |  |  | Emax (Ebola virus [2]; [4]): 41.1%
14 | CN1CCN(CCCN2c3ccccc3Sc3ccc(Cl)cc32)CC1 [Prochlorperazine Edisylate] | 3.6 | 5.2 | 5.9 | 
15 | Clc1ccc(CSC(Cn2ccnc2)c2ccc(Cl)cc2Cl)cc1 (stereo not drawn) [Sulconazole Nitrate] |  | 4.1 |  | Emax (Ebola virus [2]; [4]): 90.4%
16 | CC/C(=C(\c1ccccc1)c1ccc(OCCN(C)C)cc1)c1ccccc1 [Tamoxifen Citrate] |  |  |  | IC50 (Ebola virus [2]): 1.7 µM
